Laboratory results reported in PubChem BioAssay AID504832 (National Center for Advancing Translational Sciences (NCATS), 2011).
About 18,000 (5.8%) of roughly 310,000 compounds were called active. The inconclusive results got no clear call from the source; some entries with a clear call stand among them for comparison. Calls follow the shape of the dose curve; as a rule, active = well fitted inhibition curve with a large enough effect; inconclusive = small, poorly fitted or top-dose-only effect, or another doubt; inactive = no such curve, though single readings can be large or run the other way. Potencies of inconclusive entries are left out as doubtful fits.

Assay: Primary qHTS for delayed death inhibitors of the malarial parasite plastid, 48 hour incubation
Conditions: P. falciparum luciferase growth in erythrocytes; series mostly up to 28.7 µM
Method in brief: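 Growth was read as firefly luciferase luminescence after a 48 h, 37 C, 5% CO2 exposure of compounds to reporter-bearing P. falciparum cultures (0.1% parasitemia, 2% hematocrit final) in Albumax-supplemented RPMI 1640.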
Potency is read from the fitted curve at half-maximal effect; tags tell the direction and shape of the fitted curve.

Row | SMILES | Potency
1 | Cc1onc(-c2c(F)cccc2Cl)c1C(=O)NNC(=O)C1CCN(Cc2cccc(F)c2)CC1 | inconclusive [inhibitor, partial curve, poor fit]
2 | Brc1cnc2nc(SC/C=C/c3ccccc3)[nH]c2c1 | inconclusive [inhibitor, single point]
3 | CCOC(=O)C1(CCc2ccccc2)CCN(C(=O)c2occc2C)CC1 | inconclusive [inhibitor, single point]
4 | N#Cc1c(-c2ccc(F)cc2)ccnc1N1CCOCC1 | inconclusive [inhibitor, single point]
5 | O=C(Cn1nnc(-c2ccncc2)n1)N(C1CCCCC1)C1CCCCC1 | inconclusive [inhibitor, partial curve]
6 | O=C(CSc1nc2ccccc2nc1N1CCCCC1)Nc1ccc(F)cc1 | inconclusive [inhibitor, partial curve]
7 | CCN(CC)CCCN(CC(=O)N(C)Cc1ccccc1)C(=O)c1ccc([N+](=O)[O-])cc1 | inconclusive [inhibitor, single point]
8 | OC(COCCOc1ccc(Br)cc1)CN1CCCCC1 (stereo unspecified) | inconclusive [inhibitor, single point]
9 | Cn1nccc1C(=O)OCC(=O)Nc1nc(-c2ccccc2)cs1 | inactive
10 | COc1ccc([N+](=O)[O-])cc1N(CC(O)CN1C(=O)NC(C)(C)C1=O)S(=O)(=O)c1ccccc1 (stereo unspecified) | inactive
11 | COc1ccc(C(C)=O)cc1CSc1nnc(SCc2cc(C(C)=O)ccc2OC)s1 | inconclusive [inhibitor, partial curve, poor fit]
12 | CC(NC(=O)CCNC(=O)c1ccco1)c1ccccc1 (stereo unspecified) | inconclusive [inhibitor, single point]
13 | Cc1cc(C(F)(F)F)cc(NNC(=O)NC(=O)c2c(F)cccc2Cl)n1 | inconclusive [inhibitor, single point]
14 | O=C(CSc1nc2nc3c(cc2c(=O)n1-c1ccccc1)CCCC3)Nc1ccccc1 | inconclusive [inhibitor, partial curve, poor fit]
15 | COc1ccc(NC(=O)C2CCCC2)cc1S(=O)(=O)N1CCOCC1 | inactive
16 | O=C(CCc1ccccc1)Nc1ccc(Cl)cn1 | inactive
17 | CC(=O)c1ccc(NC(=S)Nc2cccc3cnccc23)cc1 | active: 1.85 µM
18 | Cc1ccccc1Nc1cc(C(=O)NCc2ccco2)c2ccccc2n1 | inactive
19 | COc1ccc(C(=O)O)cc1S(=O)(=O)Nc1ccccc1Cc1ccccc1 | inactive
20 | CCN(CC)S(=O)(=O)c1ccc(NC(=O)CSc2nnc(-c3ccc(F)cc3)o2)cc1 | inconclusive [inhibitor, single point]
21 | O=S(=O)(NCCC(c1ccc(F)cc1)c1ccco1)c1ccccc1 (stereo unspecified) | inconclusive [inhibitor, single point]
22 | CCC(=O)N(CCC(c1ccc(C)cc1)c1ccco1)Cc1ccco1 (stereo unspecified) | active: 2.33 µM

Row | SMILES | Potency
23 | CC1CCCC(C)N1CC(O)COC1CCC(C(C)(C)C)CC1 (stereo unspecified) | active: 10.4 µM
24 | COCCCNC(=O)CCc1c(C)c2cc3c(C)coc3cc2oc1=O | inconclusive [inhibitor, single point]
25 | O=C(Nc1ccnn1C1CCN(C/C=C/c2ccc(F)cc2)CC1)C1CCCC1 | inconclusive [inhibitor, single point]
26 | Cc1cc(C)c(N(CC(=O)NCc2ccccc2)C(=O)c2csnn2)c(C)c1 | inactive
27 | CC[C@H]1OC(=O)[C@H](C)[C@@H](O[C@H]2C[C@@](C)(OC)[C@@H](O)[C@H](C)O2)C(C)[C@@H](O[C@@H]2O[C@H](C)C[C@H](N(C)C)[C@@H]2O)[C@](C)(OC)C[C@@H](C)C(=O)[C@H](C)[C@@H](O)[C@]1(C)O (stereo partly specified) | active: 13.5 µM
28 | O=c1c2c([nH]c3ccccc13)CCCC2 | active: 1.85 µM
29 | CCCOCc1ccc(O)c2ncccc12 | active: 11.7 µM
30 | COc1cc(CN2CCCCC2C(=O)Nc2ccc(Oc3ccccc3)nc2)ccc1O (stereo unspecified) | inconclusive [inhibitor, partial curve, poor fit]
31 | c1ccc2c(-c3nc(C4CCCCC4)no3)cc(-c3ccncc3)nc2c1 | active: 2.62 µM
32 | CN(CC(=O)Nc1cccc(F)c1)CC(=O)Nc1cc(S(=O)(=O)N2CCOCC2)ccc1Cl | inconclusive [inhibitor, single point]
33 | Cc1nc(S(=O)(=O)c2ccc(Cl)cc2Cl)nc2c1CCC2 | inactive
34 | CN(Cc1ccccc1)C(=O)c1nc2ccccn2c1CN1CCCC1c1nccs1 (stereo unspecified) | active: 6.57 µM
35 | Cc1cc(-c2cc(N)n(-c3ccccc3)n2)c(C)n1C1CCCC1 | inconclusive [inhibitor, partial curve]
36 | CCCCNC(=O)C1CCCN(S(=O)(=O)c2c(C)noc2/C=C/c2cccs2)C1 (stereo unspecified) | inconclusive [inhibitor, partial curve]
37 | CN(C)S(=O)(=O)c1cc(NC(=O)COC(=O)c2ccc3c(c2)OCO3)ccc1Cl | inconclusive [inhibitor, single point]
38 | Cc1cccc(NC(=S)NCC(C)CSc2ccc(Cl)cc2)c1 (stereo unspecified) | inconclusive [inhibitor, partial curve, poor fit]
39 | CCOC(=O)/C(C#N)=C/c1c(N2CCCCCC2)nc2ccccn2c1=O | inconclusive [inhibitor, partial curve, poor fit]
40 | COc1ccc(N2CCN(C(c3cccs3)C(C)NC(=O)C(=O)N3CCCCC3)CC2)cc1 (stereo unspecified) | inconclusive [inhibitor, partial curve, poor fit]
41 | Brc1ccccc1-c1nnc(COc2ncnc3ccccc23)o1 | inconclusive [inhibitor, partial curve, poor fit]
42 | CC(C)(C)OC(=O)N1CCC(NC(=O)c2[nH]cnc2C(=O)Nc2ccon2)CC1 | inconclusive [inhibitor, partial curve]
43 | Cc1c2cnn(CC(=O)N3CCC4(CC3)OCCO4)c(=O)c2c(C)n1Cc1ccccc1 | inactive
44 | CN1C(=O)NC(NC(=O)c2ccco2)(C(F)(F)F)C1=O (stereo unspecified) | inconclusive [inhibitor, full curve, poor fit]

Row | SMILES | Potency
45 | O=C(Nc1cccc(S(=O)(=O)N2CCCCC2)c1)c1ccc2c(=O)n3c(nc2c1)CCCCC3 | inconclusive [inhibitor, single point]
46 | CCOC(=O)CN1C(=O)C(O)(c2c(C)[nH]c3ccccc23)c2ccccc21 (stereo unspecified) | inconclusive [inhibitor, full curve]
47 | COc1ccc(OCc2nc(C#N)c(N3CCN(c4ccc(OC)cc4)CC3)o2)cc1 | inconclusive [inhibitor, partial curve, poor fit]
48 | O=C(COc1ccc(S(=O)(=O)N2CCOCC2)cc1)NCc1ccccc1 | inconclusive [inhibitor, partial curve, poor fit]
49 | CCCCCn1c(CCNC(=O)c2cccs2)nc2ccccc21 | inconclusive [inhibitor, single point]
50 | Cc1ccc(S(=O)(=O)Nc2ccccc2C(=O)Nc2nc(-c3ccc(F)cc3)cs2)cc1 | active: 13.1 µM
51 | COc1cccc(N2CCN(C(=O)CCC(=O)N3CCOc4ccc(C)cc43)CC2)c1 | inconclusive [inhibitor, partial curve, poor fit]
52 | N#C/C(=C(/O)CCl)c1nc(-c2ccccc2)cs1 | inactive
53 | CC[n+]1ccc(C)c2cc(SC(F)(F)F)ccc21 | inconclusive [inhibitor, single point]
54 | O=C(NCc1n[nH]c(=S)n1-c1cccc(Cl)c1)c1cccs1 | inconclusive [inhibitor, partial curve, poor fit]
55 | COc1ccc(OC)c(NC(=O)Cn2cc(C#N)c3ccccc32)c1 | inconclusive [inhibitor, single point]
56 | COc1ccc(C(C#N)N2CCC(c3ccccc3)=N2)cc1 (stereo unspecified) | inactive
57 | CCOC(=O)C1CCCN(CC(=O)Nc2c(C(=O)OC)[nH]c3ccc(Cl)cc23)C1 (stereo unspecified) | inconclusive [inhibitor, partial curve]
58 | Cc1ccc(-n2nc3c(=O)n(CCCC(=O)NC4CCC(C)CC4)nc(C)c3c2C)cc1 (stereo unspecified) | inconclusive [inhibitor, partial curve, poor fit]
59 | COc1cccc(CN2CC(C(=O)NCCc3ccc(C)s3)CCC2=O)c1 (stereo unspecified) | inactive
60 | Cc1noc(C)c1C(=O)OCC(=O)c1c[nH]c2ccccc12 | active: 9.28 µM
61 | CCN(CC(=O)Nc1c(F)cccc1F)C(=O)c1cc(-c2cccs2)nn1-c1ccccc1 | inconclusive [inhibitor, single point]
62 | CC(C)c1nnc(NC(=O)c2c(O)c3cccc4c3n(c2=O)CCC4)s1 | inconclusive [inhibitor, full curve]
63 | CCOC(=O)N1CCC(N2Cc3cccc(C(=O)Nc4ccc(N(CC)CC)cc4C)c3C2=O)CC1 | inconclusive [inhibitor, partial curve]
64 | CCOC(=O)C(CC)Sc1ccc2nnc(-c3cccnc3)n2n1 (stereo unspecified) | inconclusive [inhibitor, partial curve]
65 | Cc1ccc(CNc2ccc3c(c2)ncn3C(C)C)cc1 | inactive
66 | O=S(=O)(c1ccccc1)[C@@]1(c2ccccc2)C[C@@H]2ON=C(c3cccc(Br)c3)[C@@H]2C1 | active: 11.7 µM
